In publication PMC12136788 one finds binding signal data, which are given here for 14 molecules.

This is one part of the list.

The chains are these.
T1: UNK ZnF1-6 (called full-length) (human, UniProt Q9C0B0 30-357)
T1 sequence: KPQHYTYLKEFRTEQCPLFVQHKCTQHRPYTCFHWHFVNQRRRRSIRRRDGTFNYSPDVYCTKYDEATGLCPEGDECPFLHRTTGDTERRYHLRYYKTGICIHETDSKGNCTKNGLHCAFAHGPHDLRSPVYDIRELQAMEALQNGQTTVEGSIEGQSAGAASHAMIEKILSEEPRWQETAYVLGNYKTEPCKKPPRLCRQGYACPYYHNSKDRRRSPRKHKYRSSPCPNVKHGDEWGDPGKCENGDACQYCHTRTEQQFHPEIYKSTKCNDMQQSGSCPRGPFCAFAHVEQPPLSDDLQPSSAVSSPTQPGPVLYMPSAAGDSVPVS

B1: chr12:120700859:120700960:+|3pUTR|ENSG00000110917|msi1|total|mutant (ssRNA)
RNA: GGGAGUUCUACAGUCCGACGAUCUCUUUGCAUCUGUGUGGCUUGCUUCCAGUCUGGCCUGUCCUUUCCAGCUGCCUUUUGUCCCGCCUGCUAUGGGGGGCCAGAUUAUCUUGAUAAGAGCAGGUGAUUUGGGGACCCGCUGGGCAACAGAGGAUUGAGCAUCA
B2: chr19:34469546:34469571:+|3pUTR|ENSG00000126261|msi1_unk|total|mutant (ssRNA)
RNA: GGGAGUUCUACAGUCCGACGAUCGUUGCCUUUUUAAUGUAAAUACCCGCCGGUAUCAUUAACCGUUUCAAAAUAUUGUGGUUCCGUAAAGUUGAUACCUGGUUAUAAAUAUUAUGCCUUUAUUUUUGGCCCGAAGAAGAAUUACAACAGAGGAUUGAGCAUCA
B3: chr19:15878022:15878898:-|three_prime_utr|ENSG00000186115|control|control|control (ssRNA)
RNA: GGGAGUUCUACAGUCCGACGAUCUCUGCAGAGACCCACUCUGACCCCACUAAAAUGACCCCUGAUUCAUCAAAAGUGAAGCCUAGAAUUACCCUAAGACCCUGUUCCACAGUCCUGUAUUCCAUCCUAGAUAUCUACUCAAAACAACAGAGGAUUGAGCAUCA
B4: chr16:85089731:85089832:+|3pUTR|ENSG00000135709|msi1|total|mutant (ssRNA)
RNA: GGGAGUUCUACAGUCCGACGAUCUUGGAAGGUUUCCCUCCGGGGAAUGCCUCCCUGGAAUGUUCCAGAGACGGAACAUUCUCCCGAGACAACAGUCUGUGCUGCAGAUUGGUUGGAUCACAGAAUGUGUGUCUGGGGCAUUAUCAACAGAGGAUUGAGCAUCA
B5: chr7:123692404:123692516:-|CDS|ENSG00000106299|unk|FALSE|unique (ssRNA)
RNA: GGGAGUUCUACAGUCCGACGAUCCCUGCCUUCUGAUGGGGACCAUCAGGUUCCAACUACUGCAGGAAACAAAGCAGCUCUUUUAGAUCAAAUUAGAGAGGGUGCUCAGCUAAAAAAAGUGGAGCAGAACAGUCGGCCAGUGUCCAACAGAGGAUUGAGCAUCA
B6: chr12:21491601:21491717:-|CDS|ENSG00000004700|unk|total|mutant (ssRNA)
RNA: GGGAGUUCUACAGUCCGACGAUCGCUGCCUCCCACCGCUCUAACUGAGGAACUGGAUUCUAUAACCAGUGAGCUACAUGCAGCCGAAAUUCAAAUUCAAGAACUUACGGAAAGGCAACAAGAGCUUAUUCAGAAAAAAAAAGUCAACAGAGGAUUGAGCAUCA
B7: chr22:38483724:38483825:-|3pUTR|ENSG00000100201|msi1|total|mutant (ssRNA)
RNA: GGGAGUUCUACAGUCCGACGAUCACUUAUAAUUCAGGUUCUGCUGUUGGCUUCAGAACAUGAGCAGAAGAAUCGUUUUAUGCCCGUUAUUGCAUUCAUGGUUGAAACUCAACUCCGGGAAAGGGUUCCAAUGUAUUAAGCAAUCAACAGAGGAUUGAGCAUCA
B8: chr17:42842016:42842117:+|3pUTR|ENSG00000131467|msi1|total|mutant (ssRNA)
RNA: GGGAGUUCUACAGUCCGACGAUCUUACUGUUUCUUUCCUCUGUGGGGCAUUGGAUCCUCCCACAGUUGCCCUGGUGAUGACUCCGGGCUUCCCAUCUGUGUACAUCCCACUUUGAAUCUUGAUCGUGACAAGAAAUACCUCCGCAACAGAGGAUUGAGCAUCA
B9: chr14:73931500:73934255:-|three_prime_utr|ENSG00000156050|control|control|control (ssRNA)
RNA: GGGAGUUCUACAGUCCGACGAUCAGCUAACUUGGGUUUGAGUCAAGGCAGGGAAAACUUGGGUUUUGAGUCAUGGCUACUGUUAGAGGAUGGACAAAUGAAGAGUAGCAGAUUAACAGGCCAGGCGCAGUGGCUCACGCCUGUCAACAGAGGAUUGAGCAUCA
B10: chr9:128061232:128063427:-|three_prime_utr|ENSG00000171169|control|control|control (ssRNA)
RNA: GGGAGUUCUACAGUCCGACGAUCCCAUGAUGGGAUGAAAACUCCAUGGACUUGUAAGUGGGUCCUGUGAUUGGCCUUGGCCUUAGACCGGCCACGUGCACAGCUCCCUCUUUAAUAAACGCUUAGGGGUUGCACUGUUUUUGACAACAGAGGAUUGAGCAUCA
B11: chr8:37861146:37861251:-|3pUTR|ENSG00000156675|unk|total|mutant (ssRNA)
RNA: GGGAGUUCUACAGUCCGACGAUCCUGUGCAGAGCAAGAAGAUGAUACUUAUUUUUGAAUUUGUAUUUUUAAAACCCGAUUUACCGACUUUUUUUUUUUUUAACCCGGGCACUUGCUUCCUUCUCCGCUAAAAGCACCAGCUGACAACAGAGGAUUGAGCAUCA
B12: ENSG00000124766:be:win_2601|3pUTR|ENSG00000124766|bound_else_gene|NA|bound_elsewhere_windowed (ssRNA)
RNA: GGGAGUUCUACAGUCCGACGAUCAGGAUAAUAUAAAAAGCAGAUAGAUGGCGCUAUGUUUGAUUCCUACAACGAAAUUAUCACCAGCUUUUUUUCAUUCUUAACUCUUUAAAGGAUUCAAACGCAACUCAAAUCUGUGCUGGACAACAGAGGAUUGAGCAUCA
B13: ENSG00000113083:stop:overlap|stop_codon|ENSG00000113083|stop_codon|NA|stop_codon (ssRNA)
RNA: GGGAGUUCUACAGUCCGACGAUCGUGACAUUCGCUACACAGGACAUCAUGCGUAUGCCUCAGGCUGCACAAUUUCACCGUAUUAGAAGGCAAAGCAAAACUCCCAAUGGAUAAAUCAGUGCCUGGUGUUCUGAAGUGGGAAAACAACAGAGGAUUGAGCAUCA
B14: chr22:21445082:21445183:+|CDS|ENSG00000169635|msi1|total|mutant (ssRNA)
RNA: GGGAGUUCUACAGUCCGACGAUCCCUGUGUGACGUCAUCAUCAUGGUGGAGAACUCCAUCUUCCGGGCCCACAAGAACGUCCCCGCCGCCAGCAGCAUCUAUUUCAAGUCCCUGGUCCUGCACGACAACCUCAUCAACCUGGACAACAGAGGAUUGAGCAUCA

The assay deals with T1, UNK ZnF1-6 (called full-length). In words: nsRBNS (natural sequence RNA bind-n-seq); RBNS binding buffer (assumed for nsRBNS): 25 mM Tris pH 7.5, 150 mM KCl, 3 mM MgCl2, 0.01% Triton X-100, 500 ug/ml BSA, 20 U/ml SUPERase-In, 4 C; UNK is unkempt and MSI1 is Musashi-1; names of the RNAs are library labels; protein concentration not given here; high values mean tight binding.
In turn, B1 registered a binding signal of 0.675 enrichment R. The molecule B2 showed a binding signal of 1.04 enrichment R.

B3 registered a binding signal of 1 enrichment R. The same measure for B4: 0.364 enrichment R.

Molecule B5 came in with a binding signal of 0.767 enrichment R. The same measure for B6: 0.478 enrichment R.

In the case of B7, the binding signal was found to be 0.245 enrichment R. Take B8: the binding signal turned out to be 0.688 enrichment R.

On to B9, for which the binding signal came to 0.866 enrichment R. Next, B10: 0.687 enrichment R; B11: 1.82 enrichment R; B12: 0.596 enrichment R. Next, B13: 1.19 enrichment R. Next, B14: 0.899 enrichment R.
